The nature of test [1]: qHTS Assay for Lipid Storage Modulators (AID 1519). The conditions noted are these: Drosophila S3 cells, BODIPY lipid droplet/cell ratio, laser cytometry, cells loaded with oleic acid. The method, boiled down: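 Cells seeded at 5,000 per well were treated with compounds over a concentration series and loaded with oleic acid (400 uM, as added). Lipid droplet fluorescence (488 nm excitation, 500-530 nm channel) was read by laser-scanning cytometry and normalized to 20 uM Triacsin C.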
For orientation: qHTS replaces the single test concentration by a dilution series.

A short description of test [2]: S16 Schwann cell PMP22 intronic element beta-lactamase assay (AID 624044). Further: nearly all actives have a fitted effect of over 15% in size. As to conditions: S16 rat Schwann cells, PMP22 element beta-lactamase FRET, 24 h. The method, boiled down:
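Rat S16 Schwann cells with beta-Lac driven by a PMP22 intronic element, compound-treated 24 h at 37 °C. LiveBLAzer FRET B/G read: 460 nm normalized to potassium clavulanate vs DMSO; 535 nm FRET as viability; concentration-effect curves classified.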

Test [3] can be described thus: A High-Content qHTS Against Drug Library for the Identification of Small Molecules that Inhibit DYT1 Early Onset Primary Dystonia-Associated Cell Pathology (AID 1645839). As to conditions: HEK293 Flp-In EGFP-delE TorsinA, punctate imaging, 48 h; measured here: cell count cytotoxicity. The method, boiled down: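 Flp-In T-REx 293 cells with tetracycline-inducible EGFP-delE hTOR1A (WT EGFP-hTOR1A as reference), 800 cells/well; compound added with tetracycline, 48 h at 37 C. Fixed, permeabilized cells imaged; %pathology (punctate TorsinA) primary, cell count counterscreen.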

Test [4] is described as follows: qHTS Assay for Inhibitors of PDE-IV (AID 607).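 Further: parental cells stimulated with forskolin 10 µM plus RO 20-1724 100 µM.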 As to conditions: HEK293 ACTOne CNG channel cells, membrane potential fluorescence; measured here: parental cell counter-screen. The method, boiled down:
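ACTOne HEK293 cells carry a modified cAMP-gated CNG channel and express endogenous PDE4; plated 1000 cells/well, compounds up to 22.9 uM final. Membrane-potential dye fluorescence (ex 535/em 590) was read; parental cells received 10 uM forskolin + 100 uM RO 20-1724.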

Test [5] can be described thus: qHTS assay for small molecule antagonists of peroxisome proliferator-activated receptor delta signaling (AID 588535).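 Further: cells co-treated with a PPAR-delta agonist as stimulator during compound exposure.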 The conditions noted are these: HEK293T PPARd-UAS-bla, beta-lactamase FRET ratio, 18 h; 460 nm channel. The method, boiled down:
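Antagonist-mode beta-lactamase reporter (GeneBLAzer PPAR-delta-UAS-bla) in HEK293T cells, 2% charcoal/dextran FBS, 4000 cells/well. Compound titrations, 18 h at 37 C; CCF4 ratio read, IC50 and efficacy from Hill fits.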

Test [6] is described as follows: qHTS assay for small molecule agonists of retinoid X receptor alpha signaling (AID 588544). As to conditions: HEK293T RXRa-UAS-bla, beta-lactamase reporter, 18 h; 530 nm emission.
Test [7] can be described thus: qHTS drug screen for cell cycle checkpoint inhibitors in PARPi-resistant BRCA-mutant ovarian cancer cell lines. (AID 1963452). The conditions noted are these: PEO1/OlaR viability, CellTiter-Glo luminescence, 96 h. The method, boiled down: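 PEO1, PEO4 and PEO1/OlaR ovarian cancer cells, 600 per well, exposed 96 h at 37C to a dilution series. Viability read by CellTiter-Glo luminescence, normalized to DMSO and empty wells; activity summarized as Z-AUC.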

Test [8] in a line: qHTS for identification of novel therapeutic agents for treatment of microphthalmiaassociated transcription factor (MiT) renal cell carcinoma (RCC) (AID 1963991). As to conditions: CellTiter-Glo, 48 h; for z-score: stronger effect = lower value. The method, boiled down: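 Three TFE3-fusion RCC cell lines (UOK109, UOK124, UOK145), 500 cells/well, were exposed to the 1912-compound MIPE 4.0 library for 48 hours at 37 C. Viability was read by CellTiter-Glo luminescence, normalised to DMSO (100%) and empty wells (0%), with 11-concentration curve fits.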

The nature of test [9]: qHTS assay for small molecule antagonists of peroxisome proliferator-activated receptor gamma signaling (AID 588537). As to conditions: HEK293 PPARg-UAS-bla, beta-lactamase ratio, antagonist mode; measured here: W460 blue channel. The method, boiled down: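 PPARγ-UAS-bla HEK293 cells (3000/well) in 1% charcoal/dextran-stripped FBS are treated with compound, then stimulated with 50 nM rosiglitazone for 16 h at 37 °C. Read-out is CCF4 β-lactamase fluorescence after 2 h at RT. IC50 comes from Hill fits normalised to rosiglitazone and DMSO.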

Test [10] is described as follows: NCATS anti-infectives library activity on the primary C. elegans qHTS viability assay (AID 1745855). As to conditions: C. elegans worm area imaging, day 7; measured here: worm area, day 3. The method, boiled down:
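Viability read-out is GFP fluorescence of PE254-GFP-FLuc C. elegans, measured by laser cytometry (488 nm) at day 0, 3 and 7. Ten L1 worms per well were incubated 7 days at 21 °C with compounds and bacterial capsules in S medium.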

[11] abbreviates: measured here: cell count channel max response.
Where [12] appears, read: measured here: cell number channel AC50.
Where [13] appears, read: measured here: lipid (BODIPY) channel AC50.
Where [14] appears, read: measured here: lipid channel max response.
The mark [15] stands for this setting: measured here: 460 nm blue channel.

In PubChem BioAssay (NCATS) one finds max response, AC50 and z-score data, which are given here for 14 molecules.

The other results are listed elsewhere or left out. Shown are side measurements of this screen, not its main read-out; they come without a call. For part of these data: Most of these compounds were active or inconclusive in the main read-out, so they are no random draw. For part of these data: Words in brackets tell the shape of the fitted curve; partial curves, single points and poor fits give uncertain potencies. Square brackets hold non-standard residues; d marks the D form. Peptide text beside a SMILES is read from it. Orn = NCCC[CH](N)C(=O)O
Tags describe the fitted curve by direction and shape.

In general, AC50 refers to the concentration giving half of the maximal activity seen. Take `CC(C)CC1NC(=O)C(CCCN)NC(=O)C(C(C)C)NC(=O)C2CCCN2C(=O)C(Cc2ccccc2)NC(=O)C(CC(C)C)NC(=O)C(CCCN)NC(=O)C(C(C)C)NC(=O)C2CCCN2C(=O)C(Cc2ccccc2)NC1=O` (stereo not given) (cyclo(FPV[Orn]LFPV[Orn]L); configuration not given here): the max response in [1] (setting [11]) was -101%; in [1] (setting [14]) it was -103%. Further, the AC50 in test [1] (setting [12]) was 10 µM [falling, partial curve]; in test [1] (setting [13]), 0.0112 µM [falling, full curve]; in test [2] (setting [15]), 2.51 µM [falling, full curve]; in test [2] (measured here: 530 nm viability channel), 12.6 µM [rising, full curve].
For the molecule `CN(C)CCOC(c1ccc(Cl)cc1)c1ccccn1` (stereo not given), the figures for the max response in [1] (setting [11]) and in [1] (setting [14]) were 25.7% and 41.1%, respectively. Besides, the AC50 in test [1] (setting [13]) is 35.5 µM [rising, single point]; in test [3] it was 35.5 µM [falling, single point].
In the case of `O=c1cc(-c2ccccc2)oc2c1ccc1ccccc12`, the AC50 is 3.16 µM [rising, full curve] in test [4]; 0.224 µM [rising, full curve, poor fit] in test [1] (setting [12]); 0.178 µM [rising, full curve, poor fit] in [1] (setting [13]). Moreover, the figures for the max response in test [1] (setting [11]) and in [1] (setting [14]) were 13.1% and 26.7%, respectively.
On to `CC(Cc1ccc(O)c(O)c1)C(C)Cc1ccc(O)c(O)c1` (stereo not given), for which the values for the max response in test [1] (setting [11]) and in test [1] (setting [14]) were 45.8% and 57%, respectively. The AC50 is 28.2 µM [rising, partial curve, poor fit] in [1] (setting [12]); 31.6 µM [rising, partial curve, poor fit] in [1] (setting [13]); 17.8 µM [falling, partial curve] in [2] (setting [15]).
Consider `CCN(CC)CCOc1ccc(/C(=C(\Cl)c2ccccc2)c2ccccc2)cc1`, for which the max response was -25.9% in [1] (setting [11]), -35.7% in test [1] (setting [14]), 87.7% in test [5] and 18.4% in test [6]. Besides, the half-maximal activity concentration (AC50) is 20 µM [falling, single point] in test [1] (setting [13]); 12.6 µM [falling, single point] in test [3]; 17.4 µM [falling, single point] in test [7] (measured here: PEO1 parental viability); 17.4 µM [falling, partial curve] in test [7] (measured here: PEO4 viability).
With `N=c1nc(N2CCCCC2)cc(N)n1O`, the figures for the max response in test [1] (setting [11]) and in test [1] (setting [14]) were -75.5% and -73.9%, respectively. The AC50 in test [1] (setting [12]) is 39.8 µM [falling, partial curve, poor fit]; in [3], 20 µM [rising, single point]; in test [8] (TFE3-RCC viability, measured here: UOK145 cell viability) it was 20.9 µM [falling, partial curve, poor fit]. In addition, the z-score is 0.324 in [8] (TFE3-RCC UOK109 viability, measured here: UOK109 Z-AUC); 0.726 in test [8] (TFE3-RCC viability, measured here: UOK124 Z-AUC); 0.519 in test [8] (TFE3-RCC viability, measured here: UOK145 Z-AUC).
As to `CCCCOC(=O)c1ccc(N)cc1`, the max response in test [1] (setting [11]) amounted to 25.2%; in test [1] (setting [14]) it was 50.7%; in test [5], 2.43%. In addition, the AC50 in test [1] (setting [13]) was 20 µM [rising, partial curve, poor fit]; in test [9] it was 17.8 µM [falling, partial curve, poor fit]; in [3] it was 1.41 µM [falling, full curve, poor fit].
As to `NS(=O)(=O)c1cc(C(=O)O)c(NCc2ccco2)cc1Cl`, the max response in test [1] (setting [11]) was 14.6%; in test [1] (setting [14]) it was 30.6%. Moreover, the AC50 was 39.8 µM [rising, single point] in test [1] (setting [13]) and 6.31 µM [rising, single point] in test [3].
For the molecule `COc1ccc2cc(CCC(C)=O)ccc2c1`, the max response in test [1] (setting [11]) stood at 19.3%; in test [1] (setting [14]) it was 36.7%. The AC50 in [1] (setting [13]) is 31.6 µM [rising, single point]; in test [3], 11.2 µM [falling, partial curve]; in test [10] it was 8.16 µM [falling, partial curve, poor fit].
Regarding `O=C(O)CP(=O)(O)O`, the values for the max response in [1] (setting [11]) and in test [1] (setting [14]) were 41.8% and 40.9%, respectively. In addition, the AC50 was 3.98 µM [falling, partial curve, poor fit] in test [1] (setting [12]); 3.55 µM [falling, full curve, poor fit] in [1] (setting [13]); 0.0398 µM [falling, full curve, poor fit] in test [2] (setting [15]).
For `CCC1OC(=O)C[C@H](O)C(C)[C@@H](O[C@@H]2OC(C)C(O)C(N(C)C)C2O)C(CCN2CC(C)CC(C)C2)CC(C)C(=O)/C=C/C(C)=C\[C@@H]1COC1OC(C)C(O)C(OC)C1OC` (stereo not given in full), the max response amounted to 30.1% in test [1] (setting [11]) and 47.6% in test [1] (setting [14]). For the same molecule, the AC50 was 39.8 µM [rising, single point] in test [1] (setting [12]); 39.8 µM [rising, single point] in test [1] (setting [13]); 0.0794 µM [falling, full curve, poor fit] in test [2] (setting [15]).
As to `C#CCN(C)Cc1ccccc1`, the max response is 39.7% in test [1] (setting [11]) and 43% in test [1] (setting [14]). For the same molecule, the concentration at half-maximal activity (AC50) is 44.7 µM [rising, single point] in test [1] (setting [13]) and 35.5 µM [rising, single point] in test [3].
Regarding `CC1(C)CCC(NC(=O)[C@@H](N)CCC(=O)O)CC1`, the max response was -71.5% in test [1] (setting [11]) and -71.1% in [1] (setting [14]). The AC50 is 0.00891 µM [falling, full curve, poor fit] in test [1] (setting [12]); 0.00891 µM [falling, full curve, poor fit] in test [1] (setting [13]); 1.41 µM [falling, partial curve, poor fit] in [2] (setting [15]).
As to `CCN(CC)C(=O)c1ccc(O)c(OC)c1`, the results for the max response in [1] (setting [11]) and in test [1] (setting [14]) were 33% and 32.4%, respectively. In addition, the AC50 in [1] (setting [12]) is 39.8 µM [rising, single point]; in test [1] (setting [13]) it was 39.8 µM [rising, single point]; in test [2] (setting [15]) it was 0.891 µM [falling, full curve, poor fit].
